Measured values taken from PubChem BioAssay (NCATS).
Inconclusive results, whose numbers are uncertain, are shown with a selection of clear calls. For part of these data: Potencies of inconclusive entries are left out as doubtful fits. Calls of active or inactive are those of the source. Unless noted, calls follow the shape of the dose curve; as a rule, active = well fitted curve in the direction sought with a large enough effect; inconclusive = small, poorly fitted or top-dose-only effect, or another doubt; inactive = no such curve, though single readings can be large; an effect the other way counts as inactive or inconclusive.

Key:
[1] = target: Voltage-gated inwardly rectifying potassium channel KCNH2 (Homo sapiens) (UniProt Q12809); assay: qHTS Assay for Small Molecule Inhibitors of the Human hERG Channel Activity (AID 588834);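 also: potency is read from the fitted curve at half-maximal effect; lower thallium flux fluorescence means stronger hERG block; nearly all actives have a fitted effect of over 50% in size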
Procedure, shortened: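 hERG block measured as reduced thallium-dye (FluxOR) fluorescence after stimulation buffer addition, read over 2 min. Cells were hERG-BacMam-transduced U2OS exposed to compound ~10 min […]; concentration-response fitted with Hill equation for AC50.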

[2] = qHTS Assay for Identifying Gametocytocidal Compounds (AID 743244);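 also: % is scaled to controls: 0 for no effect and ±100 for the full control effect; actives lower the fluorescent signal which means gametocytes are killed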; conditions: P. falciparum 3D7 stage III-V gametocytes, alamarBlue, 72 h; max response: hits give low values
Procedure, shortened: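 In this qHTS viability screen, late-stage 3D7 gametocytes are incubated with compound for 72 h, then with alamarBlue for 24 h; reduced resorufin fluorescence marks killing.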

Furin (Homo sapiens) = Furin (Homo sapiens) (UniProt P09958); assay: Furin counterscreen qHTS for Zika virus inhibitors (AID 1347149); also: nearly all actives have a fitted effect of over 70% in size; also: potency is read from the fitted curve at half-maximal effect;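 as to activity change, negative = inhibition: purified recombinant full-length human furin enzyme at 5 nM; fluorescence gain from furin cutting a BOC-RVRR-AMC peptide substrate over 15 min; top concentration of the series differs between compounds; plate controls were no-inhibitor control for no effect and no-enzyme control for full effect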
Procedure, shortened: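 Counterscreen measures cleavage of 2 microM BOC-RVRR-AMC, below its ~15 microM Km, by 5 nM full-length human furin at pH 7.0 after a 15-min compound preincubation. Inhibition derives from the 15-min fluorescence increase at 37C.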

[3] = Confirmatory screen GU Rhodamine qHTS for Zika virus inhibitors qHTS (AID 1347157); also: potency is read from the fitted curve at half-maximal effect; nearly all actives have a fitted effect of over 70% in size
Procedure, shortened: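 Compounds, tested up to 114 microM, were incubated for 15 minutes with 25 nM unlinked NS2B-NS3 protease at pH 8.0. Cleavage of 1.5 microM Rhodamine110 substrate was then followed by fluorescence for 15 minutes.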

[4] = Confirmatory screen NINDS Rhodamine qHTS for Zika virus inhibitors (AID 1347161); also: potency is read from the fitted curve at half-maximal effect; nearly all actives have a fitted effect of over 60% in size
Procedure, shortened: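 Each compound, titrated, sat 15 min with 25 nM linked protease before 1.5 microM Rhodamine110 substrate went in. Fluorescence gain over the next 15 min, in pH 8.0 Tris with Tween 20, gave Hill-fitted curves.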

[5] = Tertiary RLuc qRT-PCR qHTS assay for Zika virus inhibitors (AID 1347169); conditions: infected Vero cells, reporter luminescence, 48-72 h; activity change, negative = inhibition: at 45.9 µM (top of the series); also: potency is read from the fitted curve at half-maximal effect; nearly all actives have a fitted effect of over 55% in size
Procedure, shortened: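 Orthogonal cell-based readout: luminescence measured 1-1.5 hrs after adding live-cell Renilla substrate to Vero cells that had been infected with ZIKV-RLuc (MOI 1-2) post-compound, incubated 48-72 hrs at 37 degrees C.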

[6] = Primary qHTS for inhibitors of SARS-S pseudo-typed particle cell entry (AID 1479145; calls by dose curve; also: potency is read from the fitted curve at half-maximal effect; nearly all actives have a fitted effect of over 45% in size); conditions: outcome: dose series up to 57.1 µM unless noted
[7] = Primary qHTS for Huh7 cytotoxicity: counterscreen for inhibitors of MERS-S pseudotyped particle cell entry (AID 1479147; calls by dose curve; also: potency is read from the fitted curve at half-maximal effect); conditions: activity change, negative = cytotoxicity: at 57.1 µM (top of the series) unless noted
[8] = Primary qHTS for Vero E6 cytotoxicity: counterscreen for inhibitors of SARS-S pseudo-typed particle cell entry (AID 1479150; calls by dose curve; also: potency is read from the fitted curve at half-maximal effect); conditions: activity change, negative = cytotoxicity: at 57.1 µM (top of the series) unless noted
[9] = Primary qHTS for small molecule stabilizers of the endoplasmic reticulum resident proteome: Secreted ER Calcium Modulated Protein (SERCaMP) assay (AID 1508630); conditions: SH-SY5Y GLuc-SERCaMP (Gaussia luciferase released on ER calcium loss) secretion, thapsigargin, luminescence; activity change, negative = inhibition: at 38.4 µM (top of the series); also: % is scaled to controls: 0 for no effect and ±100 for the full control effect
Procedure, shortened: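 The SH-SY5Y reporter protocol was run at 3 concentrations up to 38.3 uM (primary) or 11 concentrations (follow-up): 16 h compound, 100 nM thapsigargin for 4 h, then extracellular luciferase luminescence.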

[10] = Cytotoxicity counterscreen for inhibitors of SARS-CoV-2 cell entry (AID 1645845; calls by dose curve; also: potency is read from the fitted curve at half-maximal effect; nearly all actives have a fitted effect of over 50% in size); conditions: activity change, negative = cytotoxicity: at 57.1 µM (top of the series) unless noted
Procedure, shortened: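 Counterscreen run in the same HEK293-ACE2 line as the pseudotyped-particle entry assay, without particles. Viability after 48 h at 37 C was read as ATP luminescence, scaled between cell-containing and cell-free wells.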

[11] = Primary qHTS to identify inhibitors of SARS-CoV-2 cell entry (AID 1645846; calls by dose curve; also: potency is read from the fitted curve at half-maximal effect; nearly all actives have a fitted effect of over 45% in size); conditions: activity change, negative = inhibition: at 57.1 µM (top of the series)
Procedure, shortened: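 Entry measured by luciferase signal 48 h after adding SARS-CoV-2-S pseudotyped MLV particles to HEK293-ACE2 cells preincubated 1 h with compounds. Normalisation: bald particles and spike particles.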

[12] = target: Rap guanine nucleotide exchange factor 3 (Homo sapiens) (UniProt O95398); assay: Confirmatory qHTS for antagonist of cAMP-regulated guanine nucleotide exchange factor 3 (EPAC1) (AID 1645880); also: nearly all actives have a fitted effect of over 55% in size; also: potency is read from the fitted curve at half-maximal effect;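 as to activity, negative = inhibition: plate controls were DMSO only for no effect and full effect of the ATA control for full effect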
Procedure, shortened: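 Released BODIPY-GDP fluoresces less than Rap1-bound BODIPY-GDP; the signal is followed at 480/540 nm at 5-min intervals over 30 min, after 5 min at room temperature. Reactions contain 100 nM EPAC1, 250 nM RAP1B-BODIPY-GDP and 50 uM GDP; results are normalized to ATA and DMSO.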

[13] = target: Rap guanine nucleotide exchange factor 3 (Homo sapiens) (UniProt O95398); assay: Confirmatory qHTS for agonist of cAMP-regulated guanine nucleotide exchange factor 3 (EPAC1) (AID 1645881); conditions: EPAC1 Rap1B BODIPY-GDP exchange fluorescence; activation: at 154 µM (top of the series), 100% = cAMP control response; also: potency is read from the fitted curve at half-maximal effect; nearly all actives have a fitted effect of over 75% in size
[14] = target: Phospholipid hydroperoxide glutathione peroxidase GPX4 (Homo sapiens) (UniProt P36969); assay: Primary qHTS Assay for Inhibitors of Recombinant Selenoprotein Glutathione Peroxidase 4 (GPX4) (AID 1845192); conditions: activity change, negative = inhibition: at 50 µM (top of the series); also: potency is read from the fitted curve at half-maximal effect; nearly all actives have a fitted effect of over 65% in size
Procedure, shortened: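 Steps: GPX4 plus compound, 30 min RT; add GR/GSH/NADPH master mix; start with cumene hydroperoxide; read 340/450 nm fluorescence at 0 and 15 min. Finals were 200 nM GPX4, 1 mM GSH, 0.5 mM CHP, 0.5 mM NADPH, 100 nM GR.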

[15] = target: Ubiquitin carboxyl-terminal hydrolase 1 (Homo sapiens) (UniProt O94782); assay: Inhibitors of USP1/UAF1: Pilot qHTS (AID 504865);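 also: rhodamine fluorescence freed from ubiquitin-rhodamine substrate followed over time; potency is read from the fitted curve at half-maximal effect; nearly all actives have a fitted effect of over 35% in size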
Procedure, shortened: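 Deubiquitinase activity followed as kinetic rhodamine fluorescence release from 150 nM Ub-Rho. 1 nM USP1/UAF1 with compound, after 15 min room-temperature preincubation, in HEPES pH 7.8 buffer containing TCEP, EDTA, BSA and Tween-20.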

[16] = tested on: Zika virus NS2B-NS3 protease (linked construct); assay: Confirmatory screen NINDS AMC qHTS for Zika virus inhibitors (AID 1347152); also: potency is read from the fitted curve at half-maximal effect; nearly all actives have a fitted effect of over 70% in size
Procedure, shortened: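 IC50s from 4-parameter Hill fits of percent inhibition, based on AMC fluorescence gain (340/450 nm) over 15 min with 10 microM Bz-Nle-KRR-AMC. Enzyme: 1 nM linked NS2B-NS3 in Tris-HCl pH 8.0; 15-min compound preincubation.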

[17] = tested on: Zika virus NS2B-NS3 protease; assay: Primary screen GU AMC qHTS for Zika virus inhibitors (AID 1347154); also: potency is read from the fitted curve at half-maximal effect; nearly all actives have a fitted effect of over 70% in size
Procedure, shortened: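 Unlinked Zika NS2B hydrophilic domain–NS3 protease complex at 25 nM in 10 mM Tris-HCl pH 8.0, 0.01% Tween 20, with an AMC peptide substrate. Fluorescence change (340/450 nm) over 15 min at room temperature, normalized to controls, fitted to 4-parameter Hill.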

[18] = ZIKV-mCherry secondary qHTS for Zika virus inhibitors (AID 1347158); conditions: Vero cells, ZIKV-mCherry infection imaging, 48-72 h; also: potency is read from the fitted curve at half-maximal effect
Procedure, shortened: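 Percent infection is the share of Hoechst-identified Vero nuclei with mCherry signal above 450 RFU (3 SD over negative controls). Cells were infected with recombinant ZIKV-mCherry at MOI 1 after compound addition and imaged 48–72 h later.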

[19] = tested on: Zika virus NS2B-NS3 protease (linked construct); assay: 384 well plate NINDS Rhodamine confirmatory qHTS for Zika virus inhibitors (AID 1347164);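 also: fluorescence from protease cleavage of Ac-LKRR-rhodamine 110 substrate; potency is read from the fitted curve at half-maximal effect; nearly all actives have a fitted effect of over 65% in size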
Procedure, shortened: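 Fluorescence at 485/538 nm was measured 25 minutes after adding 10 microM Ac-LKRR-Rd substrate, in the dark at room temperature. The protease (5, 30 or 60 nM final) had been preincubated ~15 minutes with compound; aprotinin as control.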

[20] = HepG2 cells viability qHTS for Zika virus inhibitors (AID 1347168); also: potency is read from the fitted curve at half-maximal effect
Procedure, shortened: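 qHTS titration; 24-48 h compound exposure, 37 degrees C/5% CO2; DMEM, 4% FBS; CellTiter Glo ATP luminescence.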
Tags tell the direction and shape of the fitted curve.

Sequence of UniProt O95398 (O95398 whole entry, looked up): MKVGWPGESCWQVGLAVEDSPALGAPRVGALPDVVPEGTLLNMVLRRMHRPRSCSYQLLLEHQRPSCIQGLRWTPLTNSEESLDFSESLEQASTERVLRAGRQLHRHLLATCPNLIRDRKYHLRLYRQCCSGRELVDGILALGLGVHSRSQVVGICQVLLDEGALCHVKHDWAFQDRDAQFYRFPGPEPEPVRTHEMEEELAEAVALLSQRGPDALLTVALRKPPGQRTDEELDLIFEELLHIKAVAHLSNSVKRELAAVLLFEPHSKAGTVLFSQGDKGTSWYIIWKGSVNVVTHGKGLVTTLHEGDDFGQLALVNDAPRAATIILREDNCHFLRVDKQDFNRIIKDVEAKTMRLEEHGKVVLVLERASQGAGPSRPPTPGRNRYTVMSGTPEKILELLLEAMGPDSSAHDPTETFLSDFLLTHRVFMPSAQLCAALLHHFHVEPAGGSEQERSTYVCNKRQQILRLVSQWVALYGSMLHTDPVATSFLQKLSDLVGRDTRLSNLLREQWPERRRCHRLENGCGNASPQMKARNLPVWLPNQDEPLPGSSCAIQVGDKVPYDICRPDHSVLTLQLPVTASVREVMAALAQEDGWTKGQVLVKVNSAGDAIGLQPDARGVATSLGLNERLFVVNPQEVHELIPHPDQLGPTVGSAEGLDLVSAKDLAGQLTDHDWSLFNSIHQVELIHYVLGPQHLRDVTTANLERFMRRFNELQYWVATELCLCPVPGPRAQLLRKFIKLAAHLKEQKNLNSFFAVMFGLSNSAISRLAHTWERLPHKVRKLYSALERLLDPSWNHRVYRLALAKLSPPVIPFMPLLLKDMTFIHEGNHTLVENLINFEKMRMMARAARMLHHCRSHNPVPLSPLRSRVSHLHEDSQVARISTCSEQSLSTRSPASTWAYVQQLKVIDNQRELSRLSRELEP
Sequence of UniProt P09958 (P09958 whole entry, looked up): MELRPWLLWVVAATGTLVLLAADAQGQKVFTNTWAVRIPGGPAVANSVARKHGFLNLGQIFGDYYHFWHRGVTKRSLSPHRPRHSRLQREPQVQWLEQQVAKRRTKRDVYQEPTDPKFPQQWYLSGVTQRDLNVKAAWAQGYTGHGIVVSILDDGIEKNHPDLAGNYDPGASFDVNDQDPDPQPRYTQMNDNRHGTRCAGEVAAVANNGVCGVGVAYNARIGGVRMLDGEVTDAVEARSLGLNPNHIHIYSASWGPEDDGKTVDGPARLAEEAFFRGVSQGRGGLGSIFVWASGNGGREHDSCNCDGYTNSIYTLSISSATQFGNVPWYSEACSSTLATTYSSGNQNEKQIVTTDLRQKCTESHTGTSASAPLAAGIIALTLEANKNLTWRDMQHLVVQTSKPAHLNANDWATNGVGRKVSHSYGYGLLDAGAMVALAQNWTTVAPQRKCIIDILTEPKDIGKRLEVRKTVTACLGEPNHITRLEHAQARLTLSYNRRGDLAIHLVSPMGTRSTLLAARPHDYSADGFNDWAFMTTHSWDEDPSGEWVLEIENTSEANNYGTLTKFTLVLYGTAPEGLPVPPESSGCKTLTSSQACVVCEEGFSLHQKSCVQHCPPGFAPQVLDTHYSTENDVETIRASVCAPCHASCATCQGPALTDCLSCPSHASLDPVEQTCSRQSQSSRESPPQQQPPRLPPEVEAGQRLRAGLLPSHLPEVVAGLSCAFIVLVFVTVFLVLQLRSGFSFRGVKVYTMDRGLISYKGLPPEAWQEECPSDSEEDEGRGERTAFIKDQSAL
Sequence of UniProt O94782 (O94782 whole entry, looked up): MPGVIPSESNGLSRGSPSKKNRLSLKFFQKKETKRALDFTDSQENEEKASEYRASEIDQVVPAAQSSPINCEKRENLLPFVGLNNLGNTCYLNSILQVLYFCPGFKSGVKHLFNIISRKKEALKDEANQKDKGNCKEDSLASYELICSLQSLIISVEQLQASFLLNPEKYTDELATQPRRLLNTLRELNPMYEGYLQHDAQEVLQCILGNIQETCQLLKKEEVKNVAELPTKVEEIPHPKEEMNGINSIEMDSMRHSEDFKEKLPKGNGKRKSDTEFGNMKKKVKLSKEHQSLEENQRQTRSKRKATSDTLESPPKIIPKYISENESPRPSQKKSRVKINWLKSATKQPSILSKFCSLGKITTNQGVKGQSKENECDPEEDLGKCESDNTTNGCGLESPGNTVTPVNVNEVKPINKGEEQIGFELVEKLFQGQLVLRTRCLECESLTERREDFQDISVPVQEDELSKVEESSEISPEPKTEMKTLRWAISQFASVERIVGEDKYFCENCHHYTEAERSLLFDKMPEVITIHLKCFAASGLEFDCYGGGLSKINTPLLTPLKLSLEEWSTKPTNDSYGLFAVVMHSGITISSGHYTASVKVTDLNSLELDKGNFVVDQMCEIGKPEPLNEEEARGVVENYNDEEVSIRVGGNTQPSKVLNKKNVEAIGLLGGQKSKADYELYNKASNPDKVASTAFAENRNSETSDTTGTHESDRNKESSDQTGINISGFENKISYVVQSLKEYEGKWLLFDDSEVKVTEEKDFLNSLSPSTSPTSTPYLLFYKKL
Sequence of UniProt P36969 (P36969 whole entry, looked up): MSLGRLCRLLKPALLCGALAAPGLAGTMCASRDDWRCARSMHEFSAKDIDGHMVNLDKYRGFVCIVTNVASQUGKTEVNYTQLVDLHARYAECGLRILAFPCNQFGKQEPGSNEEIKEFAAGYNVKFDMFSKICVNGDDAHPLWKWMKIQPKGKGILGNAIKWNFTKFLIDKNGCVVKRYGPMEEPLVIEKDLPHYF
Sequence of UniProt Q12809 (Q12809 whole entry, looked up): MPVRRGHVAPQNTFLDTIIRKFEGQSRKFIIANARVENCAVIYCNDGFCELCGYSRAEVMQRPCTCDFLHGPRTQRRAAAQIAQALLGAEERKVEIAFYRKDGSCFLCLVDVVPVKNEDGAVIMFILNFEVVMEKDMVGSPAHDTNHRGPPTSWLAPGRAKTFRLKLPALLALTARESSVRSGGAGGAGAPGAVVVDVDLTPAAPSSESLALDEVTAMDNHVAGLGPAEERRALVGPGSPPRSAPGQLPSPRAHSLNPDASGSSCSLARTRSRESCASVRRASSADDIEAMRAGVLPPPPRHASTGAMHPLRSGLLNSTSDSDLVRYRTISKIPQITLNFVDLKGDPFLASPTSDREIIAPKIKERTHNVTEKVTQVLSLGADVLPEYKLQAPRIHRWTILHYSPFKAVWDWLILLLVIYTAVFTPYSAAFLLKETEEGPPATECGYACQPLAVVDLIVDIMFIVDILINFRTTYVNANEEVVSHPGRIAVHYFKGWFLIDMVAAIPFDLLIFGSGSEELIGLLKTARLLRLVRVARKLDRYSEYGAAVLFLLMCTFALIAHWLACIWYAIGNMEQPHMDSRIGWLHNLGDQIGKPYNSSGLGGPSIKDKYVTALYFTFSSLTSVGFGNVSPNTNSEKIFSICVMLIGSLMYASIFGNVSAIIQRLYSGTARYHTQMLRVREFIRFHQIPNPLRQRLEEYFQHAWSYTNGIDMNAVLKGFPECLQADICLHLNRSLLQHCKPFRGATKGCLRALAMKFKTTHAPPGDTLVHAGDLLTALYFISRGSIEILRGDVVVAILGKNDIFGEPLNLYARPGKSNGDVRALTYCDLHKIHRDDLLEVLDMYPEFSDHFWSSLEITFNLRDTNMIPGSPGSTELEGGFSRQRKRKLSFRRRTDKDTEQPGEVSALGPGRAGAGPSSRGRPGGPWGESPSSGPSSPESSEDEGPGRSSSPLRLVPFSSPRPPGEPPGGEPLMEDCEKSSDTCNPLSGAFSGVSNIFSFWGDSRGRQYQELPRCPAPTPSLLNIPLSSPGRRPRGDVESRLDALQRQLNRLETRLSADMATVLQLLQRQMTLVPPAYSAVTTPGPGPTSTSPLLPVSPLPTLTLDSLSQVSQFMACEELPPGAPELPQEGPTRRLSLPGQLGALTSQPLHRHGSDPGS

SMILES: O=C1OC2(c3cc(Br)c(O)cc3Oc3c2cc(Br)c(O)[c]3[Hg])c2ccccc21 (centres undefined)
- Potency [1]: inconclusive [inhibitor, partial curve, poor fit]
- max response [2]: inactive: -1.46%
- Potency (Furin (Homo sapiens)): inconclusive [inhibitor, full curve, poor fit]
- Potency [3]: inconclusive [inhibitor, partial curve, poor fit]
- Potency [4]: inconclusive [inhibitor, full curve, poor fit]
- Potency [5]: inconclusive [inhibitor, single point]
- Potency [6]: inconclusive [inhibitor, single point]
- Potency [7]: inconclusive [cytotoxic, single point]
- Potency [8]: inconclusive [cytotoxic, single point]
- Potency [9]: inactive
- Potency [10]: inconclusive [cytotoxic, single point]
- Potency [11]: active: 10 µM
- activity, negative = inhibition [12]: inactive: 245% [at 22 µM]
- Potency [13]: active: 4.75 µM
- Potency [14]: inconclusive [inhibitor, partial curve, poor fit]

SMILES: CC(C)=CCCC1(C)C=Cc2c(O)c3c(c(CC=C(C)C)c2O1)OC12C(=CC4CC1C(C)(C)OC2(C/C=C(/C)C(=O)O)C4O)C3=O (centres undefined)
- Potency [15]: active: 35.5 µM
- Potency (Furin (Homo sapiens)): inactive
- Potency [16]: inconclusive [inhibitor, partial curve]
- Potency [17]: inconclusive [inhibitor, partial curve, poor fit]
- Potency [18]: inconclusive [inhibitor, full curve]
- Potency [19]: inconclusive [inhibitor, full curve, poor fit]
- Potency [20]: active: 18.6 µM
- Potency [5]: active: 5.87 µM
- Potency [12]: active: 28 µM
